Reference: patent US20210171593A1 (HANGZHOU SUMGEN BIOTECH, published 2021)
Substitutions are numbered along the chain they refer to.

T1: mouse CD47 (Beijing Yiqiao Shenzhou Biotechnology Co., Ltd.) (mouse, UniProt Q61735 19-140, limits assumed)
T1 construct: also called mouse CD47 molecules
T1 sequence (looked up): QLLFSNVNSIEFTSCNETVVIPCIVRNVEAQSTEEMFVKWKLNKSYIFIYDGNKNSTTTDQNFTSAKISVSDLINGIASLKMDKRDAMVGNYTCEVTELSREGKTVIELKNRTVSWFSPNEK

B1: SS002 (Fc fusion)
chain: ELQVIQPDKSVLVAAGETATLRCTATSLIPVGPIQWFRGAGPGRELIYNQKEGHFPRVTTVSDLTKRNNMDFSIRIGNITPADAGTYYCVKFRKGSPDDVEFKSGAGTELSVRAKPSL[sequence of human IgG1 Fc not given]
notes: also called wild type SIRPα truncated domain-human IgG1 Fc fusion protein
B2: SS002M91 (Fc fusion)
chain: B1 chain with I29L, E45Q, E52D, V61A, R75N, V100I
notes: also called M91-human IgG1 Fc fusion protein
B3: SS002M91G4 (Fc fusion)
chain: ELQVIQPDKSVLVAAGETATLRCTATSLLPVGPIQWFRGAGPGRQLIYNQKDGHFPRVTTASDLTKRNNMDFSINIGNITPADAGTYYCVKFRKGSPDDIEFKSGAGTELSVRAKPS[sequence of human IgG4 Fc with S228P (EU numbers) not given]
notes: also called M91-human IgG4 Fc fusion protein
B4: SS002M5 (Fc fusion)
chain: B1 chain with I29V, E45N, Q50S, K51R, E52H
notes: also called M5-human IgG1 Fc fusion protein
B5: SS002M12 (Fc fusion)
chain: B1 chain with I29F, V31I, K51R, E52K, V100I
notes: also called M12-human IgG1 Fc fusion protein
B6: SS002M82 (Fc fusion)
chain: B1 chain with I29F, D63H, L64S, G77H, V100S
notes: also called M82-human IgG1 Fc fusion protein
B7: SS002M84 (Fc fusion)
chain: B1 chain with I29F, D63H, L64S, K66R, G77H, V100S
notes: also called M84-human IgG1 Fc fusion protein
B8: SS002M102 (Fc fusion)
chain: B1 chain with I29L, V31I, Q50G, E52G, D63R, L64S, N68D, V100I
notes: also called M102-human IgG1 Fc fusion protein
B9: SS002M130 (Fc fusion)
chain: B1 chain with I29L, V31I, E45V, K51R, D63E, L64S, K66R, N68D, G77R
notes: also called M130-human IgG1 Fc fusion protein

Molecular target: T2, CD47 on the surface of tumor cells (Raji cells, Jurkat cells, A549 cells) (human, UniProt Q08722 fragment)
T2 construct: Endogenous CD47 of the cell lines; also called surface CD47; CD47 molecules on the surface of tumor cells
Experiment: flow cytometry on Jurkat cells

Binder | EC50 [µg/mL]
B1 | 4.53
B2 | 0.796

Molecular target: T1, mouse CD47 (Beijing Yiqiao Shenzhou …)
Experiment: ELISA, coated mouse CD47, anti-human IgG HRP

Binder | binding result
B1 | no binding (tested: about 15 µg/ml)

Molecular target: T2, CD47 on the surface of tumor cells …
Experiment: flow cytometry on A549 cells

Binder | EC50 [µg/mL]
B1 | 1.66
B2 | 0.322

Molecular target: T3, human CD47 (Beijing Yiqiao Shenzhou Biotechnology Co., Ltd.) (human, UniProt Q08722 fragment)
T3 construct: also called human CD47 molecules
Experiment: ELISA, coated human CD47, anti-human IgG HRP

Binder | EC50 (read off the curve) [µg/mL]
B2 | ~0.06

Molecular target: CD47-Fc protein (Cat #12283-H02H, Sino Biological) (Homo sapiens (Human), UniProt Q08722 fragment)
Experiment: cell-based or functional assay

Binder | blocking of the apoptosis of Jurkat-CSR cells induced by CD47-Fc (CCK-8, OD450), IC50
B3 | ~0.01 fold of the IC50 of TTI-621

Molecular target: T2, CD47 on the surface of tumor cells …
Experiment: flow cytometry on Raji cells

Binder | EC50 [µg/mL]
B1 | 1.14
B2 | 0.197

Molecular target: T3, human CD47 (Beijing Yiqiao Shenzhou …)
Experiment: ELISA, coated human CD47, anti-human IgG HRP
Remark: another data set of the same source

Binder | EC50 (read off the curve) [µg/mL]
B1 | ~0.06

Molecular target: T4, BSA (BOVOGEN) (bovine, UniProt P02769)
T4 construct: Control coat in the specificity ELISA
T4 sequence (P02769 25-607 limits assumed): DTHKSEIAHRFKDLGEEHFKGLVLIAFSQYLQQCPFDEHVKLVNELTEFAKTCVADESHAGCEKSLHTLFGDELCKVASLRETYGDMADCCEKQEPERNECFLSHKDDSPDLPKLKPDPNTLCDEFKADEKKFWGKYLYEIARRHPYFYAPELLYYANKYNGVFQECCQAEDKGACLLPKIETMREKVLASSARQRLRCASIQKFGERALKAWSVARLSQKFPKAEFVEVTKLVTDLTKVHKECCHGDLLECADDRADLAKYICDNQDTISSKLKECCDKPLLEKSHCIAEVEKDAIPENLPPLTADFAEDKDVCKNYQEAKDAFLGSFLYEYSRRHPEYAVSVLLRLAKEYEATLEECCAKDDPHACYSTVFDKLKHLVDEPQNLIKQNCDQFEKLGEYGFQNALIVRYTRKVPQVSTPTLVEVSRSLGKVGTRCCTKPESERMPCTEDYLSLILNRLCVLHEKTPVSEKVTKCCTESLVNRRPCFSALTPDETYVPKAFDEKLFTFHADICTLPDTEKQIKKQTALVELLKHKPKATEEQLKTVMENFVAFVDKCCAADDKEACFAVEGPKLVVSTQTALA
Experiment: ELISA, coated BSA, anti-human IgG HRP

Binder | binding result
B1 | no binding
B2 | no binding

Molecular target: CD47 molecule (Biacore, Example 3) (Homo sapiens (Human), UniProt Q08722 fragment, limits assumed)
Experiment: Biacore (SPR)

Binder | koff [s⁻¹] | kon [M⁻¹ s⁻¹] | Kd [nM]
B1 | 0.0063 | 1.32e+06 | –
B4 | 0.00862 | 1.72e+06 | 5
B5 | 0.00861 | 1.87e+06 | 4.62
B6 | 0.00211 | 1.29e+06 | 1.65
B7 | 0.00143 | 1.1e+06 | 1.3
B2 | 0.000272 | 1.56e+06 | 0.18
B8 | 0.0029 | 1.79e+06 | 1.6
B9 | 0.00882 | 1.43e+06 | 6.2
